Assay results reported in the supplement of paper PMC8285479.
Counter-ions that a name gives are not always drawn. ± gives the standard deviation of the averaged measurements. In all, about 1,900 compounds were measured (“normalised cell viability (NPI; 0 = phenylarsine oxide control, 1 = DMSO control)”: median about 1, lowest 2% from about 0.039 on). Some of the results follow.

Test system: NCI-H1944
Assay: normalised cell viability (NPI; 0 = phenylarsine oxide control, 1 = DMSO control) (fraction of DMSO control); NCI-H1944 is a non-small cell lung cancer line; higher = more viable cells (less compound toxicity)
Settings: 6 days
[1] = glucocorticoid arm: hydrocortisone 2.75 uM co-treatment, compound 1 µM
[2] = glucocorticoid arm: hydrocortisone 2.75 uM co-treatment, compound 5 µM
[3] = glucocorticoid arm: hydrocortisone 2.75 uM pre-treated 2 days and continued, compound 1 µM
[4] = glucocorticoid arm: hydrocortisone 2.75 uM pre-treated 2 days and continued, compound 5 µM
[5] = glucocorticoid arm: vehicle, compound 1 µM
[6] = glucocorticoid arm: vehicle, compound 5 µM
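Further: CTB read-out in 384-well plates, mean of triplicate wells, normalised per plate against 1 µM phenylarsine oxide and 0.1% DMSO, compounds added 24 h after seeding.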

Compound | normalised cell viability [1] | normalised cell viability [2] | normalised cell viability [3] | normalised cell viability [4] | normalised cell viability [5] | normalised cell viability [6]
Cc1cc2c(s1)Nc1ccccc1N=C2N1CCN(C)CC1 [Olanzapine] | 1.02 | 1.02 ± 0.022 | 1.03 ± 0.011 | 1.03 ± 0.025 | 1.003 ± 0.0061 | 0.998 ± 0.013
CN1C(=O)C(Cc2c[nH]c3ccccc23)NC1=S (configuration not stated) [Necrostatin-1] | 1.03 ± 0.01 | 1.11 ± 0.025 | 1.03 ± 0.011 | 1.08 ± 0.011 | 1.01 ± 0.011 | 1.02 ± 0.017
CCn1c(-c2nonc2N)nc2c(C#CC(C)(C)O)ncc(OC[C@H]3CCCNC3)c21 | 0.899 ± 0.012 | 0.726 ± 0.061 | 0.836 ± 0.014 | 0.757 ± 0.025 | 0.9827 ± 0.007 | 0.949 ± 0.015
NC(=O)CC[C@H](N)C(=O)O [L-Glutamine] | 1.007 ± 0.0058 | 1.01 ± 0.015 | 1.013 ± 0.0058 | 1.01 ± 0.01 | 1.013 ± 0.0058 | 1.01
CCCn1c(=O)c2[nH]c(C3CCCC3)nc2n(CCC)c1=O [8-Cyclopentyl-1,3-dipropylxanthine] | 1.01 ± 0.01 | 1.03 ± 0.015 | 1.01 ± 0.011 | 1.03 ± 0.011 | 0.9947 ± 0.0029 | 0.999 ± 0.0017
O=C(CCNNC(=O)c1ccncc1)NCc1ccccc1 [Nialamide] | 1.007 ± 0.0058 | 1.01 ± 0.027 | 1.01 ± 0.018 | 1.06 ± 0.061 | 1.005 ± 0.0081 | 1.01 ± 0.015
N/C(=N\C(=O)c1nc(Cl)c(N)nc1N)NCc1ccccc1 [Benzamil hydrochloride] | 1.023 ± 0.0058 | 1.04 ± 0.01 | 1.03 ± 0.011 | 1.05 ± 0.028 | 0.9897 ± 0.0045 | 1.02 ± 0.016
CCC(=O)c1ccc2c(c1)N(CCCN(C)C)c1ccccc1S2 [Propionylpromazine hydrochloride] | 0.975 ± 0.014 | 0.951 ± 0.011 | 1.01 ± 0.027 | 1 ± 0.016 | 0.9983 ± 0.0021 | 0.987 ± 0.013
Cc1nc2ccccn2c(=O)c1CCN1CCC(C(=O)c2ccc(F)cc2)CC1 [Pirenperone] | 0.9957 ± 0.0075 | 0.983 ± 0.034 | 0.996 ± 0.025 | 1.033 ± 0.0058 | 1.02 ± 0.01 | 1.03 ± 0.026
Nc1ccc(-c2ccc3ncc4ccc(=O)n(-c5cccc(C(F)(F)F)c5)c4c3c2)cn1 [Torin 2] | 0.175 ± 0.0021 | 0.171 ± 0.0032 | 0.267 ± 0.012 | 0.299 ± 0.0097 | 0.0254 ± 0.002 | 0.0207 ± 0.0023
Nc1nc(N)c(N=O)c(OCC2CCCCC2)n1 | 1.02 ± 0.011 | 1.05 ± 0.017 | 1.037 ± 0.0058 | 1.023 ± 0.0058 | 1 | 0.978 ± 0.019
NC(=O)c1cnccn1 [Pyrazinecarboxamide] | 0.9917 ± 0.008 | 1.01 ± 0.013 | 0.997 ± 0.029 | 0.995 ± 0.017 | 0.987 ± 0.006 | 0.978 ± 0.013
Cn1cnc2c(F)c(Nc3ccc(Br)cc3F)c(C(=O)NOCCO)cc21 | 0.655 ± 0.044 | 0.617 ± 0.026 | 0.7977 ± 0.0055 | 0.746 ± 0.012 | 0.639 ± 0.061 | 0.413 ± 0.011
C#Cc1cccc(Nc2ncnc3cc(OCCOC)c(OCCO)cc23)c1 | 0.973 ± 0.049 | 0.9 ± 0.0093 | 0.983 ± 0.0036 | 0.888 ± 0.0027 | 0.95 ± 0.014 | 0.8527 ± 0.0049
C#Cc1cccc(Nc2ncnc3cc(OCCOC)c(OCCO)cc23)c1 [OSI-420 (Desmethyl Erlotinib)] | 0.9597 ± 0.0064 | 0.842 ± 0.039 | 0.961 ± 0.018 | 0.866 ± 0.013 | 0.9403 ± 0.0021 | 0.827 ± 0.032
CN(C(Cc1ccc(OS(=O)(=O)c2cccc3cnccc23)cc1)C(=O)N1CCN(c2ccccc2)CC1)S(=O)(=O)c1cccc2cnccc12 (configuration not stated) | 1.02 ± 0.011 | 0.993 ± 0.015 | 1.007 ± 0.0058 | 0.974 ± 0.029 | 1.01 | 1.01

Compound | normalised cell viability [1] | normalised cell viability [2] | normalised cell viability [3] | normalised cell viability [4] | normalised cell viability [5] | normalised cell viability [6]
Cc1[nH]c(=O)c(C#N)cc1-c1ccc2nccn2c1 [Olprinone hydrochloride] | 1.02 ± 0.011 | 1.02 ± 0.015 | 1.03 ± 0.032 | 1.04 ± 0.015 | 1.02 ± 0.01 | 1.02 ± 0.01
CC(=O)O[C@H]1C(=O)[C@@]2(C)[C@H]([C@H](OC(=O)c3ccccc3)[C@]3(O)C[C@H](OC(=O)[C@H](O)[C@@H](NC(=O)c4ccccc4)c4ccccc4)C(C)=C1C3(C)C)[C@]1(OC(C)=O)CO[C@@H]1C[C@@H]2O [Paclitaxel; Taxol] | 0.131 ± 0.0057 | 1.03 ± 0.01 | 0.466 ± 0.032 | 1.02 ± 0.011 | 0.0302 ± 0.0049 | 1.01 ± 0.01
CC(=O)O[C@H]1C(=O)[C@@]2(C)[C@H]([C@H](OC(=O)c3ccccc3)[C@]3(O)C[C@H](OC(=O)[C@H](O)[C@@H](NC(=O)c4ccccc4)c4ccccc4)C(C)=C1C3(C)C)[C@]1(OC(C)=O)CO[C@@H]1C[C@@H]2O [Taxol] | 0.122 ± 0.012 | 0.117 ± 0.015 | 0.8513 ± 0.0064 | 0.802 ± 0.051 | 0.0515 ± 0.0084 | 0.0382 ± 0.0051
COC(=O)C[C@](O)(CCCC(C)(C)O)C(=O)O[C@@H]1C(OC)=C[C@]23CCCN2CCc2cc4c(cc2[C@H]13)OCO4 [Omacetaxine mepesuccinate] | 0.00277 ± 0.001 | 1.08 ± 0.026 | 0.0391 ± 0.002 | 1.03 ± 0.021 | 0.00151 ± 0.00092 | 1.017 ± 0.0058
N=C(N)c1ccc(N)cc1 [4-Aminobenzamidine dihydrochloride] | 1.01 ± 0.01 | 0.988 ± 0.013 | 1.02 ± 0.011 | 0.995 ± 0.0042 | 0.991 ± 0.017 | 1.007 ± 0.0058
CCCN(CCC)CCc1cccc2c1CC(=O)N2 [Ropinirole hydrochloride] | 1.003 ± 0.0058 | 0.994 ± 0.0052 | 1.02 ± 0.026 | 1.02 ± 0.017 | 0.996 ± 0.012 | 0.995 ± 0.007
COc1ccc2cc([C@H](C)C(=O)O)ccc2c1 [(-)-Naproxen sodium salt] | 1 ± 0.014 | 1.02 ± 0.031 | 1.003 ± 0.0061 | 1.04 ± 0.08 | 0.9993 ± 0.0011 | 1.01 ± 0.018
C[C@]12CCC(=O)C=C1[C@@H]1C[C@@H]1[C@H]1[C@@H]3[C@@H]4C[C@@H]4[C@@]4(CCC(=O)O4)[C@@]3(C)CC[C@@H]12 [Drospirenone] | 1.007 ± 0.0058 | 1.06 ± 0.023 | 1.01 ± 0.014 | 1.04 ± 0.011 | 1.007 ± 0.0058 | 0.9937 ± 0.004
OCCn1cc(-c2cnc3nnn(Cc4ccc5ncccc5c4)c3n2)cn1 | 1 ± 0.01 | 1.02 ± 0.026 | 1.02 ± 0.015 | 1.02 ± 0.052 | 1.01 ± 0.011 | 1.02 ± 0.015
OC1(c2ccc(Cl)cc2)CCN(Cc2c[nH]c3ccccc23)CC1 | 0.972 ± 0.021 | 0.852 ± 0.052 | 1.003 ± 0.0061 | 1.04 ± 0.086 | 0.9753 ± 0.0065 | 0.988 ± 0.01
Cc1ccc(C(=O)Nc2ccc(CN3CCN(C)CC3)c(C(F)(F)F)c2)cc1C#Cc1cnc2[nH]ncc2c1 | 0.6 ± 0.016 | 0.471 ± 0.065 | 0.637 ± 0.016 | 0.788 ± 0.024 | 0.473 ± 0.018 | 0.0543 ± 0.03
O=C(Nc1ccc(S(=O)(=O)Nc2ccccc2Cl)c(Cl)c1)c1ccccn1 | 1.04 ± 0.031 | 1.02 ± 0.01 | 1.02 ± 0.033 | 1.04 ± 0.032 | 1.023 ± 0.0058 | 1.017 ± 0.0058
O=c1n(CCCN2CCN(c3cccc(Cl)c3)CC2)nc2ccccn12 [Trazodone hydrochloride] | 1.01 | 0.98 ± 0.018 | 0.905 ± 0.2 | 0.993 ± 0.015 | 1.017 ± 0.0058 | 1.017 ± 0.0058
C=C[C@H]1CN2CC[C@H]1C[C@H]2[C@H](O)c1ccnc2ccc(OC)cc12 [Quinine sulfate] | 1.02 ± 0.01 | 1.03 ± 0.021 | 0.92 ± 0.16 | 1.07 ± 0.017 | 1.01 ± 0.01 | 1.02 ± 0.011
c1ccc2c(CC3=NCCN3)cccc2c1 [Naphazoline HCl] | 1.01 ± 0.018 | 1.01 ± 0.023 | 1 ± 0.022 | 0.995 ± 0.013 | 0.9893 ± 0.0015 | 1
c1ccc2c(CC3=NCCN3)cccc2c1 [Naphazoline hydrochloride] | 0.988 ± 0.01 | 0.953 ± 0.029 | 0.9967 ± 0.0058 | 0.965 ± 0.045 | 0.9937 ± 0.0025 | 0.987 ± 0.012
